# Experimental data from PMC4336329 (PLoS ONE, 2015).
# Out of some 310,000 compounds screened, about 14,000 (4.5%) showed an effect of 50% or more. The effect is printed as a negative number. The list shows a part of the results. Where a SMILES comes first, the peptide text is derived from it. [ ]: non-standard residue; d: D form. The star is where a group is joined. ξ: configuration not given here. ξF = NC(Cc1ccccc1)C(=O)O; Cbz = O=C(OCc1ccccc1)*
# Target: human ether-à-go-go-related gene (hERG) potassium channel (human, UniProt Q12809)
# Test: primary screen, population patch clamp on CHO cells stably expressing hERG
# 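Further: peak tail current of the secondary pulse compared with the same well before compound.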
# Chain of human ether-à-go-go-related gene (hERG) potassium channel (Q12809 whole entry, looked up): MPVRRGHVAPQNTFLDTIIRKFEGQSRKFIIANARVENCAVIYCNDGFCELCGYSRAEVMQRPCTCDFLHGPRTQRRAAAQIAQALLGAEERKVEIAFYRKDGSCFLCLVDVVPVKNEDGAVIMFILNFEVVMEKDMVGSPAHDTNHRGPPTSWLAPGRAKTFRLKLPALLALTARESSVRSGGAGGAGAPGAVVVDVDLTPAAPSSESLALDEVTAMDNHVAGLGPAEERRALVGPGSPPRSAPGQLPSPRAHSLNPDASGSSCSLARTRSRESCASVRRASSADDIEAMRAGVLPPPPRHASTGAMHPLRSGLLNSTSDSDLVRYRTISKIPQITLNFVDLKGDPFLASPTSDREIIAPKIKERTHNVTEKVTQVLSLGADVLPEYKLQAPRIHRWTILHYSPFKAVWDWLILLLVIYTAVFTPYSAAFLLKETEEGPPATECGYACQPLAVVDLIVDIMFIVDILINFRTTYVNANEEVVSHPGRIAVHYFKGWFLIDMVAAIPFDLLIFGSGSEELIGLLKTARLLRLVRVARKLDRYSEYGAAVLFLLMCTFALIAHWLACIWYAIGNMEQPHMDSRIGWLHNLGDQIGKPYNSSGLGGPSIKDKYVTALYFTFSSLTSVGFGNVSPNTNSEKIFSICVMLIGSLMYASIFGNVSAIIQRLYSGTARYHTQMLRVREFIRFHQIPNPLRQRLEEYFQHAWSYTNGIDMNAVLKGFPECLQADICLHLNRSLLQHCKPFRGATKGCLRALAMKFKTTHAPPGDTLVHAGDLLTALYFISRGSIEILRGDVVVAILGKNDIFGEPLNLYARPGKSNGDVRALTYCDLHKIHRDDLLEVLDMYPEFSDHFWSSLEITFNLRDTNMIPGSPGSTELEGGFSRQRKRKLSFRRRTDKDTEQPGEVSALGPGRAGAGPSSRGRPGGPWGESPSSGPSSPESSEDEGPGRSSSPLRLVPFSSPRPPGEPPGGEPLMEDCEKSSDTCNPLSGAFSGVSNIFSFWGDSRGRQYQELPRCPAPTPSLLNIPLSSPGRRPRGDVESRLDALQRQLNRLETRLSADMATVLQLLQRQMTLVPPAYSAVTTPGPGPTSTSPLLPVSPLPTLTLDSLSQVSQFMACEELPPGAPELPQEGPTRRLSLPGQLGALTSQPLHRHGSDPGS
row,Compound,"hERG current change (%, negative = inhibition) at 10uM"
1,CCOC(=O)CNC(c1ccccc1)c1cc(Br)ccc1NC(=O)OCC (stereo not drawn),6.02%
2,COc1ccc(OC)c(NC(=O)CCC(=O)N(Cc2ccc(OC)c(OC)c2)c2nccs2)c1,16.2%
3,COc1ccccc1NC(=O)NCC(=O)Nc1c(C)cccc1C,30.5%
4,CC1(C)Cc2c(C#N)c(SCCO)nc(N3CCOCC3)c2CO1,1.82%
5,CCOc1ccc2c(c1)nc(C)n2C,11.7%
6,C[n+]1cn(Cc2cc(Cl)ccc2OC(F)F)c2ccccc21.[Br-],2.96%
7,COc1ccc(/C(C)=N/OC/C(O)=C(\C#N)c2nc3ccccc3[nH]2)cc1OC,-4.76%
8,CCOC(=O)CCCSc1nc2sc(C)c(C)c2c(=O)[nH]1,17%
9,CN1C(=O)C(C2c3ccccc3C(=O)N2Cc2ccccc2)C(=O)N(C)C1=O (stereo not drawn),3.38%
10,CCOc1ccccc1N1CCN(C(=O)c2cc(S(=O)(=O)N3CCCCC3)ccc2C)CC1,-18.1%
11,COCCNC(=O)c1ccc(CS(=O)(=O)c2ccccc2C)o1,14.7%
12,O=Cc1coc2c(ccc3ccccc32)c1=O,-8.67%
13,COc1ccc(NC(=S)NCc2ccccc2)c(OC)c1,13.1%
14,O=C(NCC(c1ccco1)N1CCCC1)c1ccccc1Sc1ccc(C(F)(F)F)cc1[N+](=O)[O-] (stereo not drawn),-55.4%
15,COc1cc(C(=O)N2CCNCC2)cc(OC)c1OC.O=C(O)C(F)(F)F,20.9%
16,O=C(Cc1ccc([N+](=O)[O-])cc1)Nc1ccon1,-14.9%
17,CCOC(=O)N1CCC2(CC1)C(C#N)=C(N)OC1=C2C(=O)CCC1,-0.515%
18,O=C(CCCOc1ccc(Br)cc1)NCCc1ccc(OC(F)F)cc1,-67.7%
19,O=C(c1cc2cc(Br)ccc2o1)N1CCCCC1,-27.8%
20,COc1ccc(C)cc1NS(=O)(=O)c1ccc2c(c1)N(C)CCO2,-16.1%
21,O=C(C1=C[C@@H](c2csc3ccccc23)C[C@@H](OCCCCO)O1)N1CCN(Cc2ccc3c(c2)OCO3)CC1,-11%
22,CS(=O)(=O)N1CCN(c2ccccc2NC(=O)Cc2ccc(Cl)cc2)CC1,-38.4%

row,Compound,"hERG current change (%, negative = inhibition) at 10uM"
1,CCC1SC(=NC(=O)c2ccc(Cl)c(Cl)c2)NC1=O (stereo not drawn),14.6%
2,CSC1=NCCN1C(=O)c1ccc2ccccc2c1,19.9%
3,O=C(O)c1cc2c(cc1NC(=O)c1ccccc1C(F)(F)F)OCCCO2,-4.4%
4,CCOC(=O)CNC(=O)C(Cc1ccccc1)NC(=O)OCc1ccccc1 (stereo not drawn) (Cbz-[ξF]-Gly-OEt),-27.6%
5,Cc1cc(C)c(NC(=O)CSc2nnc(CNC(=O)c3ccccc3F)o2)c(C)c1,-6.38%
6,CC(=O)CC1(O)C(=O)Nc2ccccc21 (stereo not drawn),1.02%
7,COc1cc(/C=C2/C(=O)NN(c3cccc(Cl)c3)C2=O)cc(OC)c1O,-0.00632%
8,O=C(CCN1C(=O)/C(=C/c2ccccc2)SC1=S)N1CCCCCC1,14.7%
9,CC(=O)N(C)C1(c2nnnn2CCOC(=O)Nc2cccc3ccccc23)CCCC1,0.969%
10,CCn1cc(CN2CCC(C(=O)Nc3cccc(-c4cccc(F)c4)c3)CC2)cn1,-66.4%
11,N#C/C(=C\c1ccc(OC(=O)c2ccc(Br)s2)cc1)c1nc2ccccc2[nH]1,20%
12,COc1cc(OC)c(C(=O)NC2CCCc3ccccc32)cc1OC (stereo not drawn),-10.4%
13,O=C(O)CCN1C(=O)c2ccc(NC(=O)C(c3ccccc3)c3ccccc3)cc2C1=O,15.4%
14,CCCCOC(=O)CN1C(=O)c2ccc(C(=O)OCCCC)cc2C1=O,4.54%
15,CC1CCN(C(=O)c2ccc3c(c2)OCO3)CC1,20.3%
16,O=C1C2C3C=CC(c4ccccc4)(C2C(=O)N1c1cccc(Cl)c1)C1C(=O)N(c2cccc(Cl)c2)C(=O)C31 (stereo not drawn),8.39%
17,COc1cc(/C=N/NC(=O)/C(=C/c2ccccc2)CCO)ccc1O,-13.5%
18,CCC(=NCc1ccccc1)c1c(C(F)(F)F)[nH]n(-c2nc3ccccc3s2)c1=O,12.6%
19,Cc1nc(-c2ccccn2)nc(N(C)c2ccccc2)c1Cl,-18.8%
20,O=C(Nc1ccc(F)cc1)c1ccc(NC(=O)C2CCCO2)cc1 (stereo not drawn),18.4%
21,CCOC(=O)CCC(=O)Nc1ccc(S(=O)(=O)N2CCCCC2)cc1,0.0788%
22,CCOc1ccc(C(=O)Cc2cc(OC)c(OC)cc2[N+](=O)[O-])cc1,9.61%

row,Compound,"hERG current change (%, negative = inhibition) at 10uM"
1,O=C(C1=C(O)C(=O)N(c2ncccn2)C1c1cccs1)c1ccco1 (stereo not drawn),14.3%
2,CCSc1ccc(C(=O)Nc2cccc(C)n2)cc1[N+](=O)[O-],-38.4%
3,CCOC(=O)Cc1nnc(NC(=O)COc2ccc(F)cc2)s1,5.76%
4,COc1ccccc1C(=O)NC(=Nc1nc2ccccc2o1)NC(=O)c1ccccc1OC,14%
5,O=C(CN1C(=O)COc2ccccc21)NNC(=O)Nc1ccccc1F,7.15%
6,CCn1c(=O)c2ccccc2n2c(SCC(=O)N3CCCc4ccccc43)nnc12,8.86%
7,CCN(CC)C(=O)COc1ccc(/C(C)=N/NC(=O)c2ccccc2O)cc1,1.9%
8,Cc1nn(-c2ccccc2)c(C)c1/C=N/NC(=O)c1cc(-c2ccc(Br)s2)[nH]n1,-8.87%
9,O=C(NCc1ccccc1Cl)C1CCC(=O)N(CCCN2CCCC2=O)C1 (stereo not drawn),9.01%
10,CCCCCCCCCOC(=O)C[n+]1csc(CCO)c1C.[Cl-],-42%
11,NC(=O)C1CCCN(C(=O)c2ccc3nc(Cc4cccc(Cl)c4)oc3c2)C1 (stereo not drawn),-11.5%
12,CCC1(C)Cc2ccccc2-c2nc(-c3ccccc3)oc(=O)c21 (stereo not drawn),18.8%
13,O=C(O)c1ccc(N2CCN(C(c3ccccc3)c3ccccc3)CC2)c([N+](=O)[O-])c1,35.7%
14,Cc1nc(C)c(C(=O)NCc2ccc(Cl)cc2)o1,-7.69%
15,CCOC(=O)c1ccc(NS(=O)(=O)c2ccc3c(c2)oc(=O)n3C)cc1,-5.32%
16,CCC(C)Sc1ccc(-c2nc3cnccn3c2NC2CCCCC2)cc1.O=C(O)C(F)(F)F (stereo not drawn),8.78%
17,N/C(=N\OC(=O)CC1CCCCC1)c1ccc(Br)cc1,8.25%
18,Cc1cccc(C(=O)NCCC(=O)N2CCc3ccccc3C2)c1,-13.5%
19,CCN(Cc1cc2cccc(C)c2[nH]c1=O)C(=O)c1ccccc1OC,-7.54%
20,Cc1sc(-n2c(C)ccc2C)c(C#N)c1C,-2.26%
21,Cc1ccc2occ(CN3CC4CC(C3)c3cccc(=O)n3C4)c(=O)c2c1 (stereo not drawn),-63.9%
22,C=CCSc1nnc(NC(=O)C2=COCCO2)s1,9.51%

row,Compound,"hERG current change (%, negative = inhibition) at 10uM"
1,Cc1ccc(C)c(NC(=S)NC(NC(=O)N(C)C)C(Cl)(Cl)Cl)c1 (stereo not drawn),-9.76%
2,COc1cccc(O)c1CN1CCCC(C(=O)c2ccccc2SC)C1 (stereo not drawn),-44.1%
3,COc1ccccc1NC(=O)NCCN1CCNC1=O,-0.253%
4,NC(=O)c1ccsc1NC(=O)CCS(=O)(=O)c1ccccc1,1.27%
5,NNC(=O)c1cncn1-c1ccc(F)cc1,23.7%
6,Cc1ccc2c(c1)N(CC(=O)NCc1ccco1)C(=O)CO2,8.59%
7,O=c1c2ccccc2nc(-c2ccc(Cl)cc2)n1C1CCS(=O)(=O)C1 (stereo not drawn),-2.23%
8,CC(C)CNC(=O)CSc1nc(-c2cccs2)cc(C(F)(F)F)n1,-13.7%
9,C/C(=N/Nc1nc(C)cc(C)n1)c1ccc(Br)cc1,-14.9%
10,CC(C1CC1)N(Cc1ccccc1)C(=O)NC(=O)c1cccc(F)c1 (stereo not drawn),-7.69%
11,O=S(=O)(NCc1ccc(Cl)cc1)c1cccc2cccnc12,-11.8%
12,O=C(OCc1nnc(-c2ccccc2)o1)c1cccc(S(=O)(=O)N2CCOCC2)c1,-31%
13,COc1cccc(-c2cc(C(=O)Nc3ccc4c(c3)OCO4)no2)c1,26.4%
14,CO[C@@]1(NC(=O)Cc2cccs2)C(=O)N2C(C(=O)[O-])=C(COC(N)=O)CS[C@@H]21.[Na+],14%
15,COc1cccc(NC(=S)N(CCCN2CCN(C)CC2)Cc2ccco2)c1,-36.2%
16,COc1ccc(Nc2nc(N)nc(CN(C)C3CCCCC3)n2)cc1,-57.5%
17,Cc1ccc(C(=O)N/C(=C/c2cccnc2)C(=O)N2CCCCCC2)cc1,-10.2%
18,Cc1ccc(S(=O)(=O)N(CC(=O)NCc2cccnc2)C2CCCCC2)cc1,-63.3%
19,Cc1cc(F)ccc1S(=O)(=O)Nc1ccccc1C(=O)Nc1ccc2[nH]c(=O)[nH]c2c1,10.9%
20,C=CCn1c(-c2cccc(OC)c2OC)n[nH]c1=S,-24.3%
21,Cc1cccc(C)c1OCc1cc(C(=O)N(Cc2nccn2C)C(C)C)no1,-5.91%
